This is one part of the list.
What was measured:
[1] = tested on: HSkMC (human skeletal muscle cells); assay: cytotoxicity call (relative viability < 0.9); details: 10 µM
[2] = tested on: HepG2; assay: cytotoxicity call (relative viability < 0.9); details: 10 µM
[3] = tested on: S. aureus RN4220; assay: growth inhibition call (relative growth <= 0.2); details: 50 µM

Cl.O=C(COc1ccc(Cl)cc1)N1CCN(Cc2ccc3c(c2)OCO3)CC1
cytotoxicity call [1]: inactive | cytotoxicity call [2]: inactive | growth inhibition call [3]: inactive

CN1C(=O)c2cc(NC(=O)C3CCOCC3)ccc2OC[C@H]2O[C@@H](CC(=O)NCc3ccccc3F)CC[C@@H]21
cytotoxicity call [1]: inactive | cytotoxicity call [2]: inactive | growth inhibition call [3]: inactive

CCCCOc1ccc(CC(=O)NO)cc1
cytotoxicity call [1]: inactive | cytotoxicity call [2]: active | growth inhibition call [3]: inactive

CC(C)C(=O)NC1=N[C@H]2[C@@H](N=CN2[C@H]2C[C@@H](O)[C@@H](CO)O2)C(=O)N1
cytotoxicity call [1]: inactive | cytotoxicity call [2]: inactive | growth inhibition call [3]: inactive

O=C(CCCCCC(=O)N/N=C/[C@H](O)[C@@H](O)[C@H](O)[C@H](O)CO[C@H]1O[C@H](CO)[C@H](O)[C@H](O)[C@H]1O)NO
cytotoxicity call [1]: inactive | cytotoxicity call [2]: inactive | growth inhibition call [3]: inactive

CC[C@H]1NCCNC1=O
cytotoxicity call [1]: inactive | cytotoxicity call [2]: inactive | growth inhibition call [3]: inactive

C[C@@H]1CN([C@@H](C)CO)C(=O)c2c(c3ccccc3n2C)-c2ccccc2CO[C@H]1CN(C)Cc1cccc2c1OCCCO2
cytotoxicity call [1]: inactive | cytotoxicity call [2]: inactive | growth inhibition call [3]: inactive

COCC(=O)Nc1ccc2c(c1)C(=O)N(C)C[C@H](OC)[C@@H](C)CN(C(=O)c1ccccc1F)[C@H](C)CO2
cytotoxicity call [1]: inactive | cytotoxicity call [2]: inactive | growth inhibition call [3]: inactive

NC(CC(=O)N1CCn2c(nnc2C(F)(F)F)C1)Cc1cc(F)c(F)cc1F.O.O=P(O)(O)O (stereo not given)
cytotoxicity call [1]: inactive | cytotoxicity call [2]: inactive | growth inhibition call [3]: inactive

COCC#Cc1cnc2c(c1)C(=O)N([C@H](C)CO)C[C@@H](C)[C@H](CN(C)C(C)=O)O2
cytotoxicity call [1]: inactive | cytotoxicity call [2]: inactive | growth inhibition call [3]: inactive

Cc1cc(C(=O)Nc2cccc3c2O[C@@H](CN(C)Cc2ccncc2)[C@@H](C)CN([C@@H](C)CO)C3=O)n(C)n1
cytotoxicity call [1]: inactive | cytotoxicity call [2]: inactive | growth inhibition call [3]: inactive

Cc1ccc(S(=O)(=O)Nc2cccc3c2O[C@H](CN(C)S(=O)(=O)c2ccc(F)cc2)[C@@H](C)CN([C@H](C)CO)C3=O)cc1
cytotoxicity call [1]: inactive | cytotoxicity call [2]: inactive | growth inhibition call [3]: inactive

Cc1ccc(S(=O)(=O)N(C)C[C@@H]2Oc3ccc(NS(=O)(=O)c4c(C)noc4C)cc3C(=O)N([C@@H](C)CO)C[C@H]2C)cc1
cytotoxicity call [1]: inactive | cytotoxicity call [2]: inactive | growth inhibition call [3]: inactive

C[C@@H]1CN([C@H](C)CO)C(=O)Cc2cc(NS(=O)(=O)c3ccccc3)ccc2O[C@H]1CN(C)Cc1ccc(Cl)c(Cl)c1
cytotoxicity call [1]: active | cytotoxicity call [2]: active | growth inhibition call [3]: inactive

C[C@@H]1CCCCO[C@H](CN(C)Cc2ccc(Cl)c(Cl)c2)[C@@H](C)CN([C@@H](C)CO)C(=O)c2cc(NC(=O)c3ccccc3)ccc2O1
cytotoxicity call [1]: inactive | cytotoxicity call [2]: inactive | growth inhibition call [3]: inactive

NC1(C(=O)O)CC1
cytotoxicity call [1]: inactive | cytotoxicity call [2]: inactive | growth inhibition call [3]: inactive

Cc1ccc(S(=O)(=O)N(C)C[C@@H]2Oc3c(NC(=O)Nc4ccc(C(F)(F)F)cc4)cccc3C(=O)N([C@@H](C)CO)C[C@@H]2C)cc1
cytotoxicity call [1]: inactive | cytotoxicity call [2]: inactive | growth inhibition call [3]: inactive

CN1N=C(N)c2cn([C@@H]3O[C@H](COP(=O)(O)O)[C@@H](O)[C@H]3O)c3ncnc1c23
cytotoxicity call [1]: inactive | cytotoxicity call [2]: inactive | growth inhibition call [3]: inactive

COc1ccccc1S(=O)(=O)N[C@H]1C=C[C@H](CC(=O)N2CCN(C)CC2)O[C@@H]1CO
cytotoxicity call [1]: inactive | cytotoxicity call [2]: inactive | growth inhibition call [3]: inactive

C[C@@H]1CN([C@@H](C)CO)C(=O)Cc2cc(NC(=O)Nc3ccc(C(F)(F)F)cc3)ccc2O[C@H]1CN(C)C(=O)Nc1ccccc1
cytotoxicity call [1]: inactive | cytotoxicity call [2]: inactive | growth inhibition call [3]: inactive

C[C@H]1CN([C@@H](C)CO)C(=O)c2c(c3ccccc3n2C)-c2ccccc2CO[C@H]1CN(C)C(=O)Nc1ccc(-c2ccccc2)cc1
cytotoxicity call [1]: inactive | cytotoxicity call [2]: active | growth inhibition call [3]: inactive

O=C(C[C@H]1CC[C@@H]2[C@H](COC[C@@H](O)CN2Cc2cc(F)ccc2F)O1)N[C@@H]1CCN(Cc2ccccc2)C1
cytotoxicity call [1]: inactive | cytotoxicity call [2]: active | growth inhibition call [3]: inactive

C[C@@H]1CN([C@H](C)CO)C(=O)c2cc(NC(=O)CCN3CCOCC3)ccc2O[C@@H]1CN(C)C(=O)Nc1ccccc1
cytotoxicity call [1]: inactive | cytotoxicity call [2]: inactive | growth inhibition call [3]: inactive

C[C@H](CO)N1C[C@H](C)[C@H](CN(C)Cc2ccc(C(=O)Nc3ccccc3N)cc2)Oc2ccc(NS(C)(=O)=O)cc2C1=O
cytotoxicity call [1]: inactive | cytotoxicity call [2]: inactive | growth inhibition call [3]: inactive

CCOC(=O)N[C@@H]1CC(=O)N(C2CC2)C1
cytotoxicity call [1]: inactive | cytotoxicity call [2]: inactive | growth inhibition call [3]: inactive

C[C@@H]1CN([C@@H](C)CO)C(=O)c2cc(-c3cccc(C(=O)N(C)C)c3)cnc2O[C@@H]1CN(C)S(=O)(=O)c1ccccc1
cytotoxicity call [1]: inactive | cytotoxicity call [2]: inactive | growth inhibition call [3]: inactive

CO[C@@H](C(=O)N(C)C[C@@H]1OCc2ccccc2-c2c(n(C)c3ccccc23)C(=O)N([C@@H](C)CO)C[C@@H]1C)c1ccccc1
cytotoxicity call [1]: inactive | cytotoxicity call [2]: inactive | growth inhibition call [3]: inactive

C[C@H](CO)N1C[C@H](C)[C@@H](CN(C)Cc2ccc(C(=O)O)cc2)Oc2ccc(NS(=O)(=O)c3cn(C)cn3)cc2C1=O
cytotoxicity call [1]: inactive | cytotoxicity call [2]: inactive | growth inhibition call [3]: inactive

COc1ccc(S(=O)(=O)Nc2ccc3c(c2)CC(=O)N([C@H](C)CO)C[C@H](C)[C@H](CN(C)S(=O)(=O)c2cccs2)O3)cc1
cytotoxicity call [1]: inactive | cytotoxicity call [2]: inactive | growth inhibition call [3]: inactive

CC(=O)N[C@H]1CC[C@H](CCNC(=O)C2CC2)O[C@@H]1CO
cytotoxicity call [1]: inactive | cytotoxicity call [2]: inactive | growth inhibition call [3]: inactive

C[C@@H]1CCCCO[C@H](CN(C)C(=O)Nc2ccccc2)[C@@H](C)CN([C@H](C)CO)C(=O)c2cc(NC(=O)c3ccncc3)ccc2O1
cytotoxicity call [1]: inactive | cytotoxicity call [2]: inactive | growth inhibition call [3]: inactive

CCCCC1C(=O)N(c2ccccc2)N(c2ccc(O)cc2)C1=O (stereo not given)
cytotoxicity call [1]: inactive | cytotoxicity call [2]: active | growth inhibition call [3]: inactive

COc1ccc(S(=O)(=O)N(C)C[C@@H]2OCc3cn(nn3)CCCC(=O)N([C@H](C)CO)C[C@@H]2C)cc1
cytotoxicity call [1]: inactive | cytotoxicity call [2]: inactive | growth inhibition call [3]: inactive

Cc1ccc(S(=O)(=O)N(C)C[C@@H]2Oc3ccc(NC(=O)Nc4ccc(C(F)(F)F)cc4)cc3C(=O)N([C@H](C)CO)C[C@@H]2C)cc1
cytotoxicity call [1]: inactive | cytotoxicity call [2]: active | growth inhibition call [3]: inactive

CC1(C)C=Cc2c(nc3ccccc3c2NCc2ccccc2)C1
cytotoxicity call [1]: inactive | cytotoxicity call [2]: active | growth inhibition call [3]: inactive

C[C@@H]1CN([C@H](C)CO)C(=O)c2cccc(NC(=O)Nc3ccc(F)cc3)c2O[C@@H]1CN(C)S(=O)(=O)c1cn(C)cn1
cytotoxicity call [1]: inactive | cytotoxicity call [2]: inactive | growth inhibition call [3]: inactive

O=C(CCCCC(=O)Nc1c(I)cc(I)c(C(=O)O)c1I)Nc1c(I)cc(I)c(C(=O)O)c1I
cytotoxicity call [1]: inactive | cytotoxicity call [2]: inactive | growth inhibition call [3]: inactive

Cc1ccc(S(=O)(=O)N(C)C[C@H]2Oc3c(NS(=O)(=O)c4cn(C)cn4)cccc3C(=O)N([C@H](C)CO)C[C@@H]2C)cc1
cytotoxicity call [1]: inactive | cytotoxicity call [2]: inactive | growth inhibition call [3]: inactive

COc1ccc(NC(=O)N(C)C[C@@H]2OCCCC[C@@H](C)Oc3ccc(NC(=O)Nc4ccc5c(c4)OCO5)cc3C(=O)N([C@@H](C)CO)C[C@H]2C)cc1
cytotoxicity call [1]: inactive | cytotoxicity call [2]: inactive | growth inhibition call [3]: inactive

C[C@H]1CCCCO[C@@H](CN(C)C(=O)Nc2cccc3ccccc23)[C@@H](C)CN([C@@H](C)CO)C(=O)c2cc(NS(=O)(=O)c3cn(C)cn3)ccc2O1
cytotoxicity call [1]: active | cytotoxicity call [2]: active | growth inhibition call [3]: inactive

Reference: the antibiotic and cytotoxicity screens of Wong et al. (2023)
